Results reported in the RNAGym collection of RNA variant scans (doi:10.7554/elife.90254).
Read counts are not given, so values of variants with three or more changes are uncertain.

B1: LINE1-full (parent)
chain: UACGUAGGUGGUUUUCCCCUGAUAGUGCUAAGGGGGCCUGGAAGUUUGGACUGGGCAGAGCUCAACACAGCGUGGCAAAGUGGCUGUGGCUAGACUGCCUCUCUGGAUUCCUCGUCACUCAGCAGGGCAUCUCUGAGAGAAAUGCC

Variants of: B1
Experiment: self-cleavage, relative activity (ratio to wild type); higher = more cleavage; in vitro, sequencing; the parent is a self-cleaving ribozyme

| Variant | self-cleavage |
| --- | --- |
| U14C G25A A65G A77G A136G | 0 |
| A31G C38U A42G G70C A77U U100C U112C A117G | 0.77 |
| A69G A78G U143C | 0 |
| C19U C66U A94U G97A | 0.02 |
| U1C U20C U46C | 2.87 |
| U47A C116U A138G | 2.3 |
| U9G U39C G70U A77G U108C U115C | 0 |
| U26C U46C A57G U100A C123U | 1.08 |
| A43G U45A A79G G126A | 0.87 |
| U13C U45A U112A U115C A121U | 1.12 |
| G7A U26C A69G U73A | 0.08 |
| G58A A69U U96C A141U A142G | 0.06 |
| C51U A65G G114A | 0 |
| U52A A78G A124U A141G | 1.86 |
| A57G U73C U130C A136G | 0.92 |
| A42U U100C A142G | 0.46 |
| U13A A22G A67G | 0.68 |
| G60U U96C A129G | 0.01 |
| U12C G44A A94G | 0.2 |
| G7A U9C A42G U115C | 1.88 |
| C63G A79U U100C A138G | 0.15 |
| A30G U46C U104A | 2.2 |
| U62A U87C A140G | 0.13 |
| U5C U73C A107G | 0 |

| Variant | self-cleavage |
| --- | --- |
| A64U A69G G139C | 0.07 |
| A30G A31U C90U | 0.08 |
| A59G A79U U87C A121U | 0.18 |
| A31U C38U U45C A50G G58A A67U U73A | 0.11 |
| U9A U47C U100C | 0 |
| G7U A30G U119C | 1.02 |
| U5A U26A C37G A59G U96A | 0.27 |
| U47A U104C U115C G127A | 1.98 |
| A57U A117U A124U | 0.18 |
| U14C U20C U52A U109C G139A | 2.76 |
| A64G A69G C71U A121C | 0 |
| G60U C71A U87G | 0.03 |
| U47A U109A A142G | 1.18 |
| U47G U52C U134A | 1.5 |
| G74A U87C U115C A142C | 0.2 |
| U14C A78G U87A A141G | 0.16 |
| U15A U47C U104C | 0.79 |
| U81A U102A A124G A140G | 1.8 |
| U15A A22G U46C | 0.38 |
| U96A U130C C133A | 0.06 |
| U13A A67U G97A U119C U134C | 0.05 |
| U29C A64G U73A U143C | 0.56 |
| A59U C61A U143C | 0.03 |
| U87C A94G A121U | 0.12 |

| Variant | self-cleavage |
| --- | --- |
| U14C A69U A78G U108C | 0 |
| A22U U23C C120U C131U | 1.47 |
| U29C U85G U115C G125A A138G | 1.29 |
| U15A U85C U104C | 0.6 |
| G27A G75U U119C A124G A129G | 0.2 |
| A24U C56U A141G | 0.14 |
| U5C C38U G40C G49A A69G G106C A117U | 0.31 |
| U47A A65U G137A | 0.15 |
| A69G U96G U115A | 0.13 |
| A22G G60C G86A U132C | 0.09 |
| U1C U12C A78G U119A C146A | 0.71 |
| G75A A77C U104A U132A | 1.09 |
| C113A A124G A129U | 0.55 |
| A67G U73A A92U C131U | 0.33 |
| A50G A107G U132A | 0.74 |
| A43G U62C A124C C131U A140G | 0 |
| U20A A94G U115C A141G | 0.31 |
| U9C U104C G144U | 1.47 |
| U73C A79G C98U U108C | 0.56 |
| G53U A67G U73C | 0 |
| U20C U62C U91A C128U | 0.08 |
| A2G U23A U26A G27A A42U | 0.8 |
| U26C G54U G83A | 0.3 |
| A2G U13A U14A | 0.92 |

| Variant | self-cleavage |
| --- | --- |
| A77G U102C U132C A140G | 1.15 |
| U12C A136U G144U | 1.25 |
| U13C U26C A64U A117G | 1.84 |
| U5C U13C A79G A94G C113U | 0.67 |
| A64G U96C U102C | 0 |
| U46C U73C A142G | 1.47 |
| U13C A57G U81A U132C | 1.19 |
| U5C A57C A77U U109A U130C | 0.61 |
| G49A A65G U81G | 0.02 |
| A42U U62G U104A A129G A140G | 0.09 |
| U26C A94G A142G | 0.56 |
| U87C U96A A138G | 0 |
| U29C A67U U132C | 0.35 |
| U62C A121G A138U | 0.05 |
| U45C G93A U104C A107G U108A | 0.1 |
| G32A A50G G126A | 0.53 |
| A79G U132C A140G | 1.17 |
| U62C U81A U100C | 0 |
| A2G U12C U20A U47A U115C A121U U143C | 0.38 |
| U87A U96A U108C | 0.11 |
| G32A U87C A94U | 0.02 |
| G34U U45C U115A | 0.64 |
| U14C A67U U112C U132C | 0.25 |
| U85C U115C A141G | 0 |

| Variant | self-cleavage |
| --- | --- |
| A79G U91A A117C A141U | 0.84 |
| A22G A59G U104C A107G | 0 |
| A65G U73A U119C | 0.06 |
| U12C A78G A94G C98U U112C | 0.09 |
| G8U A129G U132C | 2.04 |
| U13C U45C U91C A92U | 0 |
| A57U A77U A142C | 0.05 |
| U5C A24G U45C C98U U100A | 0.36 |
| U5A U62C A140G | 0.07 |
| U100C A121G A140G | 2.47 |
| A42U A64U A78G U112A | 0.09 |
| G25A U100C G105U | 1.21 |
| U14A U87A G106A | 0 |
| G49U U87C U108C | 0 |
| A79G U85A U91C U119A | 0.08 |
| A22G A94G U102C | 0.92 |
| G25A A107G A124G | 0.86 |
| C51A G55C A57G U73C | 0 |
| G21A C37U U39C U45C U62A U100C | 0.06 |
| G40A A79G U102C | 1.08 |
| U9A U119G U132C A140G | 0.48 |
| U1C A50G U62C U87C | 0 |
| U87C A124G A140G | 0.16 |
| A69U G83A G125A | 0.03 |

| Variant | self-cleavage |
| --- | --- |
| A6G U14C U23C U62A G122A | 0.25 |
| U15C U102C U119C | 0.92 |
| U87C U91A U112A U134C | 0.07 |
| U73G C123A U143G | 1.58 |
| U62C A65U A129G | 0.09 |
| G32A U73C A140G | 1.93 |
| U15C U20C A121U | 1.79 |
| U62A A79U U81A | 0.02 |
| A31U U96A U119C A129G | 0.04 |
| U47A U87A U104A U108C | 0 |
| U47C U62A C98U | 0.04 |
| U52A U96C U109C | 0.16 |
| U14C A65G U132C | 0.19 |
| A6G A57G U104A A117G | 0 |
| A77G A78G U81A U96C U119C G122U | 0 |
| U9A U20C U62C A77G C95U U112C | 0 |
| U5A U15C U87C | 0.29 |
| A67C U81A U102C | 0.15 |
| U13C A42G U52C G86A | 0.19 |
| G35A U52A A59G A141G | 0.07 |
| U9C G32A G48A A69G | 0.37 |
| A43G A64G U100C A142G | 0 |
| U9A U26C G122A | 1.54 |
| U13C A42G U45A A67G A124G | 0 |

| Variant | self-cleavage |
| --- | --- |
| U26G A43G A138U | 1.47 |
| U5C A78G A92U U96A | 0 |
| U1A U96C U112C | 0.27 |
| U5C A57G A69G U132C | 0 |
| A2G A22U A77C A79G A142G | 0.84 |
| U26C A59G A107U | 0.31 |
| U12C U23C U39A | 0.97 |
| U73C U115C U119C | 0.71 |
| U12C U14C C95A | 0.37 |
| U14C A31U A138G | 0.94 |
| C3U A42G U46C | 0.57 |
| U20C U96A A136G | 0.11 |
| U12G U47A C103U A124U | 2.11 |
| U1C U39C U47C | 1.43 |
| U13C U47C A140G | 1.5 |
| U73A A117G A124U | 1.14 |
| U13C G53A A79G A140G | 0.96 |
| A31G A43G U87A A117G A142G | 0 |
| G32A A79G U119C | 0.94 |
| U9A A67U U96C A142G | 0 |
| U15C A31G U96C U132A | 0 |
| A6G A77U U96C A121C | 0.72 |
| U104C A107G U134A | 0 |
